Among all 310,000 compounds or so, about 18,000 (5.8%) were called active. This list was built around the results that the source calls inconclusive (neither active nor inactive); the mix of calls is not that of the screen. Calls follow the shape of the dose curve; as a rule, active = well fitted inhibition curve with a large enough effect; inconclusive = small, poorly fitted or top-dose-only effect, or another doubt; inactive = no such curve, though single readings can be large or run the other way. Potencies of inconclusive entries are left out as doubtful fits.
experiment: Primary qHTS for delayed death inhibitors of the malarial parasite plastid, 48 hour incubation; conditions: P. falciparum luciferase growth in erythrocytes; series mostly up to 28.7 µM; activity change, negative = inhibition: at the top concentration
Procedure, shortened: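 Erythrocytes infected with P. falciparum carrying an integrated firefly luciferase reporter (2% hematocrit, 0.1% parasitemia final) were exposed to compounds in RPMI 1640 with 0.5% Albumax at 37 C, 5% CO2. Growth inhibition was scored as reduced luminescence.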
% is scaled to controls: 0 for no effect and ±100 for the full control effect; potency is read from the fitted curve at half-maximal effect; tags tell the direction and shape of the fitted curve.

| SMILES | activity change, negative = inhibition | Potency |
| --- | --- | --- |
| COC(=O)c1c(NC(=O)CN2CCN(c3cccc(Cl)c3)CC2)sc(C)c1C | inactive: 9.52% | – |
| Nc1cc(C(=O)OCC(=O)N2CCCC2=O)ccc1Cl | – | inconclusive [inhibitor, single point] |
| Cc1cc(C)c2cc(C#N)c(NCCNC(=S)NCCCN3CCOCC3)nc2c1 | – | inconclusive [inhibitor, single point] |
| CC(=O)Nc1ccc(S(=O)(=O)Oc2cccc(/C=C3\SC(N)=NC3=O)c2)cc1 | – | inconclusive [inhibitor, single point] |
| O=C(O)c1cccc(N2C(=O)/C(=C/c3ccc(SCc4ccc(Cl)cc4)o3)SC2=S)c1 | – | inconclusive [inhibitor, single point] |
| CCOC(=O)c1nc(C)nc(Sc2n[nH]c(-c3ccccc3)n2)c1C | – | active: 10.4 µM |
| CCOCCCNC(=O)C1CCN(S(=O)(=O)c2cc(Br)cc3c2N(C(=O)CC)CC3)CC1 | – | inconclusive [inhibitor, partial curve, poor fit] |
| Cc1cc(C(=O)N/N=C2\CC(=O)c3ccccc32)c(C)n1-c1ccc(F)cc1 | – | active: 4.65 µM |
| Cc1ccc(N2C(=O)CC(Sc3nccc(C)n3)C2=O)cc1 (configuration not stated) | inactive: -11.2% | – |
| CCOC(=O)N1CCN(C(c2cccnc2)c2ccc3cccnc3c2O)CC1 (configuration not stated) | – | active: 11.7 µM |
| COC(=O)c1ccc(Oc2nc(C)cc(Oc3ccccc3)n2)cc1 | – | inconclusive [inhibitor, single point] |
| Cc1ccc(C(=O)Nc2ccccc2C(=O)N2CCCC(C)C2)cc1 (configuration not stated) | inactive: -6.83% | – |
| COc1cc2c(cc1OC)CN(C(=O)C1CCCN1S(=O)(=O)c1ccc(F)cc1)CC2 (configuration not stated) | inactive: -12.6% | – |
| CCc1c(C2(O)CCCCC2)[nH]c2cnccc12 | – | inconclusive [inhibitor, single point] |
| CC1(C)Cc2cccc(OCC(=O)N3CCN(c4ccc(F)cc4)CC3)c2O1 | – | active: 11.7 µM |
| O=C(Nc1cccc(-c2nnc(-c3ccccc3)o2)c1)C1CC1 | – | inconclusive [inhibitor, single point] |
| COc1ccc(C2c3[nH]c4ccccc4c3C[C@H]3C(=O)N(c4ccccc4C(=O)N4CCC[C@H]4C(=O)O)C(=O)N23)cc1 (some centres not stated) | – | active: 9.28 µM |
| Cc1cc(OCC(O)CN2CCCC2)ccc1C(C)C (configuration not stated) | – | inconclusive [inhibitor, full curve, poor fit] |
| CCc1ccccc1NC(=O)CN1CCN(CC(=O)Nc2cc(C)ccc2OC)CC1 | – | inconclusive [inhibitor, partial curve] |
| O=C(CCCN1C(=O)c2ccccc2C1=O)NCCCN1CCOCC1 | inactive: -3.82% | – |
| COC(=O)[C@@]1(Cc2ccc(F)cc2)[C@H]2c3cc(C(=O)N4CCCC4)n(CCO)c3C[C@H]2CN1C(=O)c1ccccc1 | – | active: 3.7 µM |
| Cn1cc(/C=C/C(=O)N2CCCC(C(=O)c3cccc(C(F)(F)F)c3)C2)cn1 (configuration not stated) | inactive: 4.57% | – |
| CN(C)c1ccc(C2Nc3ccccc3C(=O)N2CCCN2CCOCC2)cc1 (configuration not stated) | – | inconclusive [inhibitor, partial curve, poor fit] |

| SMILES | activity change, negative = inhibition | Potency |
| --- | --- | --- |
| Cc1nn(-c2ccccc2)c2sc(C(=O)NC3CC3)cc12 | – | inconclusive [inhibitor, single point] |
| CC(C)CNS(=O)(=O)c1ccc(CCC(=O)N2CCN(Cc3ccccc3)CC2)cc1 | – | inconclusive [inhibitor, partial curve] |
| CCC(=O)N1CCc2cc(Br)cc(S(=O)(=O)CCC(=O)N(CC)CC)c21 | – | inconclusive [inhibitor, single point] |
| CCOC(=O)N1CCN(C(=O)/C(=C/c2cccc3ccccc23)NC(=O)c2ccc(OC)c(OC)c2)CC1 | – | inconclusive [inhibitor, single point] |
| Brc1ccc(-c2ccc(/C=N/Nc3nc4ccccc4[nH]3)o2)cc1 | – | active: 0.415 µM |
| Fc1ccc(Oc2ccc3nnc(C(F)(F)F)n3n2)cc1 | – | inconclusive [inhibitor, single point] |
| O=C1CCCc2cc(S(=O)(=O)N3CCC(C(=O)NCc4ccccc4)CC3)ccc2N1 | – | inconclusive [inhibitor, partial curve, poor fit] |
| Cc1cc(Nc2ccccc2)c2c([N+](=O)[O-])c(C)cc(C)c2n1 | – | inconclusive [inhibitor, single point] |
| OCC(O)/C=N/Nc1nc(N2CCCCC2)nc(N2CCCCC2)n1 (configuration not stated) | – | inconclusive [inhibitor, partial curve, poor fit] |
| Cc1ccc2c(CN3CCCCC3)cc(=O)oc2c1C | – | inconclusive [inhibitor, partial curve, poor fit] |
| Cn1ncc([N+](=O)[O-])c1C(=O)Nc1cccc(Cl)c1 | – | inconclusive [inhibitor, full curve, poor fit] |
| CC1CCCN(CC(O)COc2ccc(Cl)cc2)C1 (configuration not stated) | inactive: 32.1% | – |
| O=C(O)CCn1nnc(-c2ccccc2)n1 | inactive: 17.6% | – |
| Cc1ccc(/C=C/C(=O)N2CCN(S(=O)(=O)c3ccc(C)c(C)c3)CC2)o1 | – | inconclusive [inhibitor, partial curve, poor fit] |
| O=C(NCCc1ccccc1)c1ccc(CS(=O)(=O)Cc2ccc(F)cc2)o1 | inactive: 10.2% | – |
| COC(=O)[C@@]12CCCCN1[C@H](c1ccc(-c3cccc(Cl)c3)cc1)[C@H]1C(=O)N(C)C(=O)[C@H]12 | – | inconclusive [inhibitor, single point] |
| COC(=O)CCCC1=CC2=C(c3ccccc3)C(=O)C(C)(OC(=O)C3CCCC3)C(=O)C2=CN1Cc1ccc(OC)cc1 (configuration not stated) | – | inconclusive [inhibitor, partial curve, poor fit] |
| COc1ccc(N=N/C(C(C)=O)=C(/C)O)cc1 | inactive: 50% | – |
| O=C(CSc1nc(-c2cccs2)nc2cc(=O)[nH]n12)Nc1ccccc1F | – | inconclusive [inhibitor, single point] |
| CCOc1ccc(-c2nc(N)nc(C)c2-c2ccc(Cl)cc2)c(O)c1 | – | inconclusive [inhibitor, single point] |
| COc1ccc(NC(=O)CCN2CCN(S(=O)(=O)c3ccc(Cl)cc3)CC2)cc1 | – | inconclusive [inhibitor, single point] |
| COc1ccc(/C=C2\SC(=S)N(CCC(=O)N3CCOCC3)C2=O)cc1 | – | inconclusive [inhibitor, single point] |
| CCOC(=O)N/N=C\c1ccc([N+](=O)[O-])s1 | – | inconclusive [inhibitor, single point] |

| SMILES | activity change, negative = inhibition | Potency |
| --- | --- | --- |
| CCn1cc(Cl)c(C(=O)NNC(=O)CCn2ccc([N+](=O)[O-])n2)n1 | inactive: 63.5% | – |
| C[C@@H]1O[C@H](O[C@@H]2C=C3CC[C@H]4[C@@H](CC[C@]5(C)[C@@H](c6ccc(=O)oc6)CC[C@]45O)[C@@]3(C)CC2)[C@@H](O)[C@H](O)[C@@H]1O | inactive: -8.39% [at 12.8 µM] | – |
| N#Cc1c(N)n(Cc2ccccc2)c(=O)c2cc([N+](=O)[O-])ccc12 | – | inconclusive [inhibitor, single point] |
| COc1ccc(NC(=O)CC2C(=O)N(c3ccc(F)cc3)C(=S)N2NC(=O)c2ccc(Cl)cc2)cc1 (configuration not stated) | inactive: 23.6% | – |
| COCCCNC(=O)CSc1nc2ccccc2c(=O)n1Cc1ccc2c(c1)OCO2 | – | inconclusive [inhibitor, partial curve, poor fit] |
| COc1ccc(CC(C)NC2CCCCCC2)cc1 (configuration not stated) | – | inconclusive [inhibitor, partial curve, poor fit] |
| Cc1ccc(S(=O)(=O)N2CCCCC2)cc1NC(=O)CN1CC=C(c2ccccc2)CC1 | – | inconclusive [inhibitor, single point] |
| O=C(N/N=C/c1cccn1-c1ccc([N+](=O)[O-])cc1)c1cccnc1 | – | inconclusive [inhibitor, single point] |
| CCC(C(=O)O)P(=O)(c1ccc(Cl)cc1)c1ccc(Cl)cc1 (configuration not stated) | inactive: 1.98% | – |
| O=C(CN1CCN(S(=O)(=O)c2cccc(Br)c2)CC1)NCCc1cccs1 | – | inconclusive [inhibitor, single point] |
| CN(Cc1ccccn1)Cc1cn(Cc2ccccc2)nc1-c1ccc2c(c1)OCO2 | – | inconclusive [inhibitor, partial curve] |
| COc1ccc(CNCCC(c2ccccc2)c2ccc3c(c2)OCO3)cc1 (configuration not stated) | – | inconclusive [inhibitor, partial curve, poor fit] |
| O=C(CC(c1ccccc1)c1cc(Br)ccc1O)N1CCCCC1 (configuration not stated) | – | active: 13.1 µM |
| Cn1c(/C=C/c2ccc([N+](=O)[O-])o2)nc2ccccc2c1=O | – | inconclusive [inhibitor, full curve] |
| Cc1ccc2c(C)c(C(=O)NCCN3CCOC3=O)oc2c1C | inactive: 8.48% | – |
| O=C(NC1CCN(C(=S)NCc2ccco2)CC1)NC12CC3CC(CC(C3)C1)C2 | – | inconclusive [inhibitor, partial curve, poor fit] |
| Cc1ccc(S(=O)(=O)NNC(=O)c2ccc(F)cc2)cc1 | inactive: 0.771% | – |
| CCc1ccccc1-n1ncc(C(=O)Nc2ccccc2OC)c1C | – | active: 11.7 µM |
| COc1ccc(-n2c(C)cc(C=O)c2C)cc1Cl | – | inconclusive [inhibitor, partial curve] |
| Cn1c2ccccc2c(=O)c2c(=O)n(C3CCCCCC3)c(C3CCCCC3)nc21 | – | active: 8.28 µM |
| COc1ccccc1-c1c(C)nn2c(N3CCCCCC3)cc(C)nc12 | – | active: 10.4 µM |
